From PubChem BioAssay AID2675 (National Center for Advancing Translational Sciences (NCATS), 2010)
Among all 280,000 compounds or so, about 100 (0.036%) were called active. This list was built around the results that the source calls inconclusive (neither active nor inactive); the mix of calls is not that of the screen. Calls come from the whole dose curve; as a rule, active = well fitted inhibition curve with a large enough effect in the signal ratio, with a control signal flat (not every such curve was filed as active); inconclusive = small, poorly fitted or top-dose-only effect, or effect the other way, or a change in a side signal; inactive = no such curve, though single readings can be large or run the other way; the % refers to the signal ratio. Potencies of inconclusive entries are doubtful fits and often do not repeat. A note “side channel” means that the fit belongs to a control or component signal, not to the main read-out.
% is set by controls: 0 for no effect and ±100 for the full control effect; potency is the fitted concentration of half-maximal effect; tags give direction and shape of the fitted curve or compound fluorescence and quenching.

Each compound was assayed against Muscleblind-like protein 1 (Homo sapiens) (UniProt Q9NR56) (assay: qHTS Assay for Inhibitors of MBNL1-poly(CUG) RNA binding). Conditions: TR-FRET MBNL1-His/biotin-(CUG)12 binding, 665/545 ratio; activity change, negative = inhibition: at 57.5 µM (top of the series).
UniProt Q9NR56, sequence (Q9NR56 whole entry, looked up): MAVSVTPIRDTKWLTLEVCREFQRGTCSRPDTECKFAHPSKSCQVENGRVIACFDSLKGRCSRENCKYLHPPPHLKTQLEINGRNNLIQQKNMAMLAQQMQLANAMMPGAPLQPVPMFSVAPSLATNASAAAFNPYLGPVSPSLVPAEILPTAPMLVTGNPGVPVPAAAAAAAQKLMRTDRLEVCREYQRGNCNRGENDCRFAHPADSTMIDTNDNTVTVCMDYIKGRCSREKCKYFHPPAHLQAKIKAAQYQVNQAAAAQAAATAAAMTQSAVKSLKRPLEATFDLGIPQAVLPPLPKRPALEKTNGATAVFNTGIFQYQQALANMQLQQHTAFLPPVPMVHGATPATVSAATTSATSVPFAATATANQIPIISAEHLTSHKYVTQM
Summary of the method: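 MBNL1-His + Biotin-(CUG)12, cpd titration 92 nM–58 uM; Tb anti-His Ab 0.055 ng/ul, SA-XL665 5 nM (final); 60 min RT; ratiometric 665/545 nm, Ex 340 nm; normalized to buffer and full-complex controls.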
With CCc1nnc(NC(=O)c2nc(S(=O)(=O)Cc3ccccc3)ncc2Cl)s1 the “activity change, negative = inhibition” value was inactive: 9.16%.
In the case of S=C(Nc1ccccc1Cl)NC1CCC(NC(=S)Nc2ccccc2Cl)CC1 (stereo not drawn), the “activity change, negative = inhibition” value was inactive: 4.18%.
CSc1nc2oc3c(c2c2nncn12)CC(C)(C)SC3 was tested, and the “activity change, negative = inhibition” value was inactive: 18%.
In the case of Cc1cccc(N(C(=O)CCC(=O)Nc2cccnc2)C(C(=O)NC2CCCC2)c2ccncc2)c1 (stereo not drawn), the Potency was inconclusive: 50.1 µM [inhibitor, single point].
CC(C)CC(=O)Nc1ncc([N+](=O)[O-])s1 was tested, and the Potency was inconclusive: 11.2 µM [quencher, partial curve].
Cc1ccc(C(C)NC(=S)NC2CCCCC2)c(C)c1 (stereo not drawn) was tested, and the “activity change, negative = inhibition” value was inactive: -6.34%.
CCS(=O)(=O)N1CCN(c2ccc([N+](=O)[O-])c(NCc3ccccc3)c2)CC1 was tested, and the Potency was inconclusive: 12.6 µM [quencher, side channel, partial curve].
In the case of CCOC(=O)CSC1=NC(=O)/C(=C\c2ccc(OC(C)=O)cc2)S1, the Potency was inconclusive: 17.8 µM [quencher, side channel, partial curve].
Cn1c(=O)c2c(nc(N3CCCCC3)n2CCCNC2=NCCCC2)n(C)c1=O was tested, and the “activity change, negative = inhibition” value was inactive: -4.3%.
For C=CCn1cnc2c(c1=O)c1nc3ccccc3nc1n2-c1ccccc1, the Potency was inconclusive: 3.16 µM [quencher, single point].
In the case of CN1C2C=C3C(C#N)=C(N)C(C#N)(C#N)[C@H](c4c(F)cccc4F)[C@H]3C1CC2 (stereo partly drawn), the “activity change, negative = inhibition” value was inactive: -1.9%.
In the case of CCOc1ccc2nc(NC(=O)CSC3=NCCS3)sc2c1, the “activity change, negative = inhibition” value was inactive: -4.49%.
O=C(c1ccc(O)cc1)c1ccc(Cl)cc1 was tested, and the “activity change, negative = inhibition” value was inactive: 3.48%.
With Cc1ccc(OCCOCCn2ccnc2)c(Br)c1 the Potency was inconclusive: 100 µM [inhibitor, single point].
C=CCc1c(C)nc2c(OC)cccc2c1Cl was tested, and the “activity change, negative = inhibition” value was inactive: 12.7%.
With N/C(=N\OC(=O)c1cc(-c2ccccc2)nc2ccccc12)c1ccccn1 the Potency was inconclusive: 3.98 µM [quencher, side channel, single point].
For COc1cc(/C=N/Nc2ccccc2[N+](=O)[O-])cc(OC)c1O, the Potency was inconclusive: 7.94 µM [quencher, side channel, partial curve].
COc1ccc(N2CCN(c3cc(C)nc4ccc(OC)cc34)CC2)cc1 was tested, and the Potency was inconclusive: 31.6 µM [quencher, single point].
For COc1cc(/C=N/N2C(=O)c3ccccc3C2=O)ccc1O, the Potency was inconclusive: 39.8 µM [quencher, side channel, single point].
With O=C(NC(=S)Nc1ccccc1Cl)c1ccco1 the “activity change, negative = inhibition” value was inactive: -10.5%.
In the case of COc1cc(C(=O)Nc2nnc(CC(C)(C)C)s2)c([N+](=O)[O-])cc1OC, the Potency was inconclusive: 28.2 µM [quencher, side channel, single point].
With COc1cccc2c1OCC(C(=O)OCc1cccnc1)=C2 the Potency was inconclusive: 12.6 µM [quencher, side channel, partial curve].
With NC(=O)C1CCN(c2cc(Cl)ccc2[N+](=O)[O-])CC1 the Potency was inconclusive: 12.6 µM [quencher, side channel, partial curve].
COc1ccc(CNCC(O)(c2ccccc2)c2ccc(F)cc2)cc1 (stereo not drawn) was tested, and the “activity change, negative = inhibition” value was inactive: 0.0085%.
With CN(C)c1ccc(/C=N/NC(=O)CN(c2ccccc2Cl)S(C)(=O)=O)cc1Br the Potency was inconclusive: 11.2 µM [quencher, side channel, partial curve].
In the case of N/C(=N\OC(=O)C(c1ccccc1)c1ccccc1)c1ccccn1, the Potency was inconclusive: 39.8 µM [quencher, side channel, single point].
With O=C(COc1ccc(Cl)cc1)Nc1ccc2[nH]ncc2c1 the “activity change, negative = inhibition” value was inactive: 2.75%.
For CCOC(=O)c1cc(-c2ccc3c(c2)OCCO3)nc2c1c(C)nn2CCC#N, the “activity change, negative = inhibition” value was inactive: 7.05%.
NC(=O)Cc1nc(-c2ccc([N+](=O)[O-])cc2)cs1 was tested, and the Potency was inconclusive: 4.47 µM [quencher, side channel, partial curve].
For CCS(=O)(=O)c1ccc(O)c(NC(=O)Nc2cccc3ccccc23)c1, the Potency was inconclusive: 39.8 µM [quencher, side channel, single point].
With O=C(Nc1cccc(F)c1)N1C2CCC1CC(O)(c1cccnc1)C2 (stereo not drawn) the Potency was inconclusive: 35.5 µM [quencher, side channel, single point].
In the case of CCc1ccc2[nH]c3nc(SCC(=O)NNC(=O)c4ccc(C(C)(C)C)cc4)nnc3c2c1, the “activity change, negative = inhibition” value was inactive: -5.92%.
For CC1CCCN(CC(=O)Nc2cccc([N+](=O)[O-])c2)C1 (stereo not drawn), the Potency was inconclusive: 22.4 µM [activator, single point].
In the case of O=C1CN(C(=O)COC(=O)/C=C/c2ccco2)c2ccccc2N1, the Potency was inconclusive: 20 µM [quencher, side channel, partial curve].
For Cc1ccc(-c2cc(C(F)F)n3ncc(C(=O)N4CCN5CCCC5C4)c3n2)cc1 (stereo not drawn), the Potency was inconclusive: 15.8 µM [quencher, side channel, partial curve].
Cc1ccc(C(=O)Nc2ccc([N+](=O)[O-])cn2)o1 was tested, and the Potency was inconclusive: 11.2 µM [quencher, side channel, full curve].
With COc1ccc(CCNc2ccc(N3C(=O)CC(C)C3=O)cc2[N+](=O)[O-])cc1 (stereo not drawn) the Potency was inconclusive: 10 µM [quencher, partial curve].
CC1=CN2C(=N)/C(=C/c3ccco3)C(=O)N=C2S1 was tested, and the Potency was inconclusive: 4.47 µM [quencher, side channel, full curve].
In the case of CCOc1cc(NC(=S)NCCCN2CCOCC2)c(OCC)cc1NC(=O)c1ccc(C)cc1, the Potency was inconclusive: 12.6 µM [quencher, side channel, partial curve].
CN(C)CCCn1cnc2c(c1=N)C(c1ccccc1)c1ccc3ccccc3c1O2 (stereo not drawn) was tested, and the “activity change, negative = inhibition” value was inactive: -3.52%.
For COc1ccc(CCNC(=O)CC2COc3ccccc3O2)cc1OC (stereo not drawn), the Potency was inconclusive: 0.794 µM [fluorescent, side channel, single point].
COc1ccc(S(=O)(=O)n2nc(OC(=O)c3c(-c4ccccc4Cl)noc3C)cc2N)cc1 was tested, and the “activity change, negative = inhibition” value was inactive: -0.936%.
COc1ccccc1NC1=C(NC(C)=O)C(=O)c2ccccc2C1=O was tested, and the Potency was inconclusive: 7.94 µM [quencher, side channel, partial curve].
In the case of Cc1cc(C)n2nc(C(=O)N/N=C/c3ccco3)nc2n1, the Potency was inconclusive: 25.1 µM [quencher, side channel, partial curve].
In the case of O=C(O)c1ccc(Cn2nnc3sc4c(c3c2=O)CCCC4)cc1, the Potency was inconclusive: 20 µM [quencher, side channel, single point].
In the case of CC1C/C(=N\NC(=O)c2ccc([N+](=O)[O-])cc2)CC(C)(C)C1 (stereo not drawn), the Potency was inconclusive: 17.8 µM [quencher, side channel, partial curve].
In the case of Cc1ccc(-n2c(=O)c3sccc3n(Cc3cc(=O)n4ccccc4n3)c2=O)cc1, the Potency was inconclusive: 17.8 µM [quencher, side channel, partial curve].
Cc1cc(C)n(Cc2ccc(NC(=O)c3c([N+](=O)[O-])c(C)nn3C)cc2)n1 was tested, and the Potency was inconclusive: 14.1 µM [quencher, side channel, partial curve].
With Cc1cc(C)n(CCN(C)c2nc3nonc3nc2N2CCCCC2)n1 the Potency was inconclusive: 22.4 µM [quencher, side channel, partial curve, poor fit].
O=C(NNc1ccccc1[N+](=O)[O-])Nc1ccc(F)cc1F was tested, and the Potency was inconclusive: 15.8 µM [quencher, side channel, partial curve].
For CCc1ccc(/C=C2\Oc3c(ccc(O)c3CN3CCN(CCO)CC3)C2=O)cc1, the Potency was inconclusive: 10 µM [quencher, side channel, partial curve].
CC1CN(c2nc3ccccn3c(=O)c2/C=C(\C#N)S(=O)(=O)c2ccccc2)CC(C)O1 (stereo not drawn) was tested, and the Potency was inconclusive: 25.1 µM [quencher, side channel, partial curve].
COCCNc1nc2sc3c(c2c(=O)n1Cc1ccco1)CCCCC3 was tested, and the Potency was inconclusive: 35.5 µM [fluorescent, side channel, single point].
CC(C)C(Nc1ccc(S(=O)(=O)N2CCOCC2)cc1[N+](=O)[O-])C(=O)O (stereo not drawn) was tested, and the Potency was inconclusive: 28.2 µM [quencher, side channel, partial curve].
For Cc1ccc(/C=N/NC(=O)c2ccc3ccccc3c2)s1, the Potency was inconclusive: 28.2 µM [quencher, side channel, single point].
In the case of O=C(NCc1cccc(C(F)(F)F)c1)c1ccc[nH]1, the Potency was inconclusive: 35.5 µM [fluorescent, side channel, single point].
For CC(C)N(CC#CCC(O)(c1ccccc1)c1ccccc1)CCO, the “activity change, negative = inhibition” value was inactive: 1.05%.
With CCN1CCCC1CNC(=O)c1ccc(Sc2ccccc2Cl)c([N+](=O)[O-])c1 (stereo not drawn) the Potency was inconclusive: 12.6 µM [quencher, side channel, partial curve].
With CCC(CO)Nc1ncc([N+](=O)[O-])cc1C#N (stereo not drawn) the Potency was inconclusive: 17.8 µM [quencher, side channel, single point].
With Cc1ncc(N=Nc2ccccc2Cl)c(-c2ccccc2)n1 the Potency was inconclusive: 15.8 µM [quencher, side channel, partial curve].
For Cc1ccc(-c2cc(C(=O)NCc3ccco3)c3ccccc3n2)s1, the Potency was inconclusive: 17.8 µM [quencher, side channel, partial curve].
In the case of CCCNC(=O)c1cc2cc([N+](=O)[O-])ccc2s1, the Potency was inconclusive: 6.31 µM [quencher, side channel, full curve].
In the case of CCOC(=O)c1ccc(OS(=O)(=O)c2ccccc2)c(OC)c1, the Potency was inconclusive: 1 µM [quencher, side channel, single point].
